Measured values: the supplement of paper PMC12632987
Over roughly 4,500 sequences, “median log2 fold change of GCK-ALFA target abundance (FLAG IP / Myc IP barcode read proportion)” has its median near 0.078; the lowest 2% begin near -0.6. The list shows a part of the results.

B1: GBRAP_52_6301 (protein)
chain: MREEAERLAEELLELMRAGRREEAEALLKEIVETKSEEFIRLLAEVLARRAEEADEEEQDLIFEIMEMLADALLEGGYDEAFAGDLLALVAAAIYKAELR
B2: GBRAP_139_3734 (protein)
chain: SAEDAAVAEVVALTRQSVATGGALVAEIADALAALDEATAERAADAMAEVMKSQPFDVVETLFDALIETLLTDHGDEDLATIVEAARNRALAEVAVREEA
B3: GBRAP_43_5748 (protein)
chain: DRELVEGAVDTVLLMAEDPRVSPETVLRAFKAALDLIADTGVKLKDGLTAATAAVAARLSPEQVRALIAHIEELAKKSPEVKETFEAAKAVLEAALAARE
B4: GBRAP_160_4762 (protein)
chain: KEELKKLKEEIEEIFKEHIELLKEVPKEKAVTVVEGAMGEVLMLAFSSEAVSDELEEKIGEIMDEAVERAKENKDAPVEVHIKILEEAREKILELIEEEI
B5: GBRAP_74_6570 (protein)
chain: SEEKIKEIKEVAATKSLKEFSEYLLENIDELDEESLLVALEELKKLVEENKDTLTPEELEAAAEAAAALADKAFTTESSDETLDAAVELLTAVVEAEKKF
B6: GBRAP_39_5687 (protein)
chain: EKEEEAEDTVSYLEALAAKYLYETGISLEEAYERAKEILTKLAKEHPELKELIEELIKLADEKGEEAKLALIGVAVLIEEGTPLEEIKKNIELIIYYFKS
B7: GBRAP_160_4105 (protein)
chain: SEKIEEFLEEFREVFEEVLELYDEISAEELVNFYEVELSSVILDAKDELNLSDETVDELLEVRDEAAERLRENYDASREEIREILEEAFERMEEVLEENE
B8: GBRAP_128_3435 (protein)
chain: AEEAKLAEAKALIDKILKASVEEVYELTKELLALFGTLSPEAAQEVADYVISQIPKLTKEQLEALADAIREQRPTLDPYHANLANEVEVEALNQILELEE
B9: GBRAP_137_3628 (protein)
chain: AVVEIRVERYEDVVEITVTLADAELAEAVEELVLDVAHEHGALAVSVERREDGTLEVTVWVPRERAEALLEELVRRLREELGLEVRVEDLDTGEVEEFRP
B10: GBRAP_184_5222 (protein)
chain: ETVRESVEAKTAEEAIKKSNEVIEKAEKEGKELDLHVFLENMSLEEIEKVMKYLSELKKEGKIKNATVTILDERSEEEIDKLVEIADKYGIRLVVALPDE
B11: GBRAP_74_6561 (protein)
chain: SEEKIKEIKEVAETKSILEFANYILEHIDELDEEALLVAAEELARKVEEEKDELTPEELEAVAEAVAALADKVFTEDASREALEAMNRLIALVVELEKKA
B12: GBRAP_52_6337 (protein)
chain: AAAAIEAAAEAIADAVVAGRLDEAVALTREVAETKSLEEVRAMLLRTAELIAERLPDREDLAFEAIFRLADVVEEVLGNEELADEVEAHMARLLVERRRA
B13: GBRAP_128_3177 (protein)
chain: SVEEVKKKTEEMMDKIINSNPEEARKIAEELFEYLKTLSPEEREAAVEVILSRLPELTAEHLEIIADVARKHRDEFDPEGAELVADLEVEALNLAEELEE
B14: GBRAP_48_5840 (protein)
chain: EEEKREKAIEEILKIIKETAELLEEAKEEGLSEAAFEAILIDAAEEIKEVLEKYLGLGEEFEKLPLEEQLAIVEELVKTYKEEGEEATRKKIKEFIEKLE
B15: GBRAP_172_5008 (protein)
chain: KPTLIKKVIDSEDAEEAIAEIKEVLEEASKKKDAIVSIAVRVSDEEKAEEVEEEAEKLAKKYPNVVVEVAVTYDPSLNLEQIAEALLLEAIEEYEEKKKE
B16: GBRAP_128_3212 (protein)
chain: SVEEIKEKVRKLLEEIKEANKEEAKKIAEELAKLILNSSVEEAEAAKEVIEELAPELSEEDLEILMEAFEKEARKTSDERSLVLLEISIILGSEILEKEE
B17: GBRAP_128_3562 (protein)
chain: SVEEAVAQARELLEEIKASDEERAREAARRLAELLAAADPETREAIVAEILERLPELSVEHLEVLADVFREARPSADPATAEALAEIEVEALNEAEEKEE
B18: GBRAP_52_6243 (protein)
chain: MEEKMKKDAEELYKLVLEGKEEEAEKLAKEIAENYNEEELEIFIEKLAEIAKKARKEDIEKVWKLTEIVAKALEEAGKPEILVDLLESKVAAALYEVELK
B19: GBRAP_52_6106 (protein)
chain: ARARVRALVEEALALVRAGREEEARALLEAFARTANEEELELFAEALAELAREAAPEDLDAVWRLAEMAAEALEAAGWPDVLVDDLLARVAAALYERELK
B20: GBRAP_11_2811 (protein)
chain: MTPEKKEIIELLREAEELAERLLEEGVDDEELLERLRELARRVLELVKKHLDEADTRDAEALLETVEEAERDPERREEYLRNAAAGARTLRANVEEEAEE
B21: GBRAP_11_2680 (protein)
chain: KLEALKQAAELARQAAELAQALLERGPADAELLAALQATVDQLAALVKANLDEAEKTLVAILRDELAAAQADPANAEAHLQNALAAARVLHYNLEEEIDE
B22: GBRAP_184_5073 (protein)
chain: EVKEATIAVTDVAEARAKVAALAAEVADFKGDLVVSLEMPEFDLEIARAVLDGLAAILAAGRARRVTLGIDAEATEEQVDEAVELADRLGVRLVLPLKEE
B23: GBRAP_39_5666 (protein)
chain: EEEEENEDVVSYLEAVAAGYLYETGISLEEAFEEAKEILKKYAEEHPELKELIEKLIELAEKKGDEAKLALIGIAVKIKEGTPIEEIKEDIEKVIKYFES
B24: GBRAP_11_2742 (protein)
chain: KKEKLEEIAKLAEEAAETVAKLIATGTDDAELRAKAAKLLAELAKLVKEHGDEFLKELAAAAAADFAEALADPANATAHLQNALAALRVLAGQVLLEIEE
B25: GBRAP_160_4760 (protein)
chain: KEKLKKLKEEVEEIFKEHLEMLKEVKPEEAPTVVRGAMGEVIMEVMSSEAASDELEEKIGEIADEAEEEAEANKDAPVEFHIKILEEARKKILSLIEEEI
B26: GBRAP_128_3511 (protein)
chain: SLEEAVARTRELMRAIAEADPETAAELTGELVDLINSVDDETAEAIAEEAIRLLPELSAEKLDVVADTLLERRPEVDEYKANLLADIAVEALNRREELDE
B27: GBRAP_52_5848 (protein)
chain: MEEEARKIAKELVELKLEGKEEELKKKIEEIVKTLSPEEVKLILKELARLAKEADEEEAEAILEVAELLADEAEKEGFDEDELSYLLAEVAAAVYKRLQK
B28: GBRAP_166_4981 (protein)
chain: MEEERVEEAKEYIDEKAEEAKEANYEEKLELLAEVAERIRELKEEGLSEEKLKELIRYTLEKFSKVGISLSDVEGALSIIAELDEEEVELLLEARKEVEA
B29: GBRAP_52_6285 (protein)
chain: SREEVEATAEEIVALVKEGKLEEALKLAREAVKRFSLEEVLELGELLVKRIATLKPEQIDLALEVVEELAEGLEEEFGAEEEADIIEARAAAAAYQALQA

Target: GABARAP, O95166
Sequence (O95166 whole entry, the tested form may be a part): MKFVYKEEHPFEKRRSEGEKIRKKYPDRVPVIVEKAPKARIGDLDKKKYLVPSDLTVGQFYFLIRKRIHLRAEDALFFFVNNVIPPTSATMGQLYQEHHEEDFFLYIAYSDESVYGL
Assay: median log2 fold change of GCK-ALFA target abundance (FLAG IP / Myc IP barcode read proportion) (log2 ratio); each designed protein is fused to an ALFA-tag nanobody in HEK293 cells to bring the named protein to FLAG-tagged glucokinase (GCK); Myc marks an untargeted standard; higher = target protein stabilised (more abundant)
Settings: target protein: 3xFLAG-MCP-GCK-ALFA reporter; HEK293 landing pad (RPLP)
Outline: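 Sequencing of reverse-transcribed, amplified circular RNA barcodes from anti-FLAG and anti-Myc immunoprecipitates provided the readout for an ALFA-nanobody-fused binder library recombined into HEK293 landing-pad cells. Those cells were induced with 2 μg mL^−1 doxycycline, transfected with a plasmid expressing a FLAG-tagged target and a Myc-tagged standard, and lysed after 48 h. Target abundance is the per-binder median log2 ratio of FLAG to Myc barcode read proportions. Only barcodes at a proportion of ≥10^−7 in both replicates and binders with ≥3 barcodes per replicate were kept, with a 10^−6 pseudocount added before the two replicates were pooled.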

Row | Binder | median log2 fold change
1 | B1 | -0.198
2 | B2 | 0.234
3 | B3 | 0.171
4 | B4 | 0.0708
5 | B5 | -0.135
6 | B6 | 0.196
7 | B7 | -0.565
8 | B8 | 0.297
9 | B9 | -0.285
10 | B10 | -0.251
11 | B11 | -0.0445
12 | B12 | -0.0864
13 | B13 | 0.281
14 | B14 | -0.364
15 | B15 | 0.153
16 | B16 | -0.568
17 | B17 | 0.12
18 | B18 | 0.397
19 | B19 | -0.266
20 | B20 | 0.243
21 | B21 | 0.145
22 | B22 | 0.0205
23 | B23 | 0.0283
24 | B24 | 0.18
25 | B25 | -0.185
26 | B26 | -0.25
27 | B27 | 0.255
28 | B28 | 0.222
29 | B29 | -0.541
